# Results: article PMC4336329 (PLoS ONE, 2015)
# Out of some 310,000 compounds screened, about 14,000 (4.5%) showed an effect of 50% or more. Effects have a minus sign here. This is one part of the list.
# Target: human ether-à-go-go-related gene (hERG) potassium channel (human, UniProt Q12809)
# Test: primary screen, population patch clamp on CHO cells stably expressing hERG
# 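Further: peak tail current of the secondary pulse compared with the same well before compound.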
# Chain of human ether-à-go-go-related gene (hERG) potassium channel (Q12809 whole entry, looked up): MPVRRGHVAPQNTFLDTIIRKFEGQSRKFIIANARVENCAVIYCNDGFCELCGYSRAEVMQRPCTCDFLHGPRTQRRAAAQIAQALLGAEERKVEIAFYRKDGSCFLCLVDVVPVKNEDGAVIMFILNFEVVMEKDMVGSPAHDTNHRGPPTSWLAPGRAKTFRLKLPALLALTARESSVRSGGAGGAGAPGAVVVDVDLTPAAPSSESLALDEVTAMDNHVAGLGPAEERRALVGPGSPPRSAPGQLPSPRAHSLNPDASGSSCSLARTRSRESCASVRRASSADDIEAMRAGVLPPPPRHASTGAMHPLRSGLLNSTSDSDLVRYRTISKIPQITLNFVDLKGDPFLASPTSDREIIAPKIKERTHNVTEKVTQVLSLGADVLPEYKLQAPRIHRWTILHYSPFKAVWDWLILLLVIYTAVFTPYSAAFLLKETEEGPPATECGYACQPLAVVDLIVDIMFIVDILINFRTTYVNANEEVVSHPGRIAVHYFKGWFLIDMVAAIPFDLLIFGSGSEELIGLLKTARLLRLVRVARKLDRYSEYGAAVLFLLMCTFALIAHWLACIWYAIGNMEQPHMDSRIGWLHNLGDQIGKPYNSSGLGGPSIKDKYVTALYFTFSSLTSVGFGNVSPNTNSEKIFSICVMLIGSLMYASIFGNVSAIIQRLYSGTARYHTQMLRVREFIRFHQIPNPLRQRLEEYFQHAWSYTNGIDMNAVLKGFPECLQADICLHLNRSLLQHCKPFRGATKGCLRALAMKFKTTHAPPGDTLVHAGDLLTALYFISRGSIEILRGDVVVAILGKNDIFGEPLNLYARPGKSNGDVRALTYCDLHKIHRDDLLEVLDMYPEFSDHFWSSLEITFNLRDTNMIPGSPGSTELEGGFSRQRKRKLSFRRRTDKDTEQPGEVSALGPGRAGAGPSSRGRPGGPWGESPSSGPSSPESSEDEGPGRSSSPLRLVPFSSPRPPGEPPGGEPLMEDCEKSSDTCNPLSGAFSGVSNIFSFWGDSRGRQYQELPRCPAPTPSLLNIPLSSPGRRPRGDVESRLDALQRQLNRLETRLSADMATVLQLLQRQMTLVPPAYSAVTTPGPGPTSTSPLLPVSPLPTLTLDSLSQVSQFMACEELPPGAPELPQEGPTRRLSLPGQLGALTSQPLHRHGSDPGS
row,Structure (SMILES),"hERG current change (%, negative = inhibition) at 10uM"
1,CC(C(=O)O)N1CCCCC1.Cl (stereo not drawn),-21.5%
2,COc1ccc(C(=O)COc2ccccc2C#N)cc1,2.58%
3,O=c1nc(-c2ccccc2)n(-c2ccccc2)[nH]1,1.69%
4,Cc1ccc(C(=O)c2c3ccc(C(F)(F)F)cc3[n+]([O-])n2CCC[NH3+])cc1.O=C([O-])C(F)(F)F,-75%
5,CCn1c(=O)n(CC)c2cc(N3CCCC3)c(NC(=O)c3ccccc3OC)cc21,-4.68%
6,O=C(Cn1c(=O)sc2ccccc21)NCc1ccccn1,4.49%
7,CCOc1cc(CNc2ccccc2)cc(Br)c1OCc1ccccc1F,15.3%
8,O=C(CN1CCCCC1)Nc1cccc(Br)c1,-39%
9,O=c1[nH]c2cccc(F)c2n2cccc12,1.61%
10,COCCCNc1nc(N)c([N+](=O)[O-])c(NCC2CCCO2)n1 (stereo not drawn),18.1%
11,Br.COc1ccc(C2=CSC(/N=C/c3ccc(F)cc3)=NN2)cc1,5.78%
12,CCC1CCCCN1C(=O)c1cc(-c2ccc(Cl)c(Cl)c2)on1 (stereo not drawn),-17.6%
13,COC(=O)c1c(C)[nH]c(C(=O)/C=C/c2ccccc2Cl)c1C,-23.8%
14,CC1(C)OC(=O)C(=CNn2cnc3ccccc3c2=O)C(=O)O1,20%
15,O=C1NC(=O)C2(COC(c3cccc([N+](=O)[O-])c3)OC2)S1 (stereo not drawn),20.5%
16,O=C(NC(=S)Nc1cnc2ccccc2c1)c1ccccc1,10.8%
17,CCCn1c2ccc(C)cc2c2nnc(SCCN3CCOCC3)nc21,-32.5%
18,Cc1ccc(C(=O)O/N=C/C2=C(Cl)c3ccccc3CC2)cc1,12.7%
19,O=C(Cn1ccc([N+](=O)[O-])n1)NCCc1c[nH]c2ccccc12,8.49%
20,O=S(=O)(c1ccc(C2CCCCC2)cc1)N1CCOCC1,-6.57%
21,CN(Cc1nc2ccccc2n1C)S(=O)(=O)c1ccc(F)cc1,-16.9%
22,O=C(NCC1CCCO1)c1ccc[nH]1 (stereo not drawn),12.3%
23,CCN1CCN(c2ccc(NC(C)=O)cc2Cl)CC1,-1.19%

row,Structure (SMILES),"hERG current change (%, negative = inhibition) at 10uM"
1,O=C1CNC(=O)/C(=C/c2cccs2)N1,11.2%
2,CCCCn1c(N)c(N(CCOC)C(=O)CCC2CCCCC2)c(=O)[nH]c1=O,-0.603%
3,CC(c1ccon1)N(C)Cc1cn[nH]c1-c1ccc(-c2ccccc2)cc1 (stereo not drawn),0.991%
4,CS(C)(=O)=NS(=O)(=O)c1ccc(Cl)cc1,3.24%
5,Cc1cc(C)cc(OCCOc2cccc(C=C3C(=O)NC(=O)NC3=O)c2)c1,20.3%
6,CC1CCCCN1C(=O)Nc1cccc(Cl)c1 (stereo not drawn),-16%
7,CCOC(=O)Cn1c(C)[n+](CC(=O)c2ccccc2)c2ccccc21.[Br-],22.7%
8,CC(OC(=O)CN1C(=O)c2ccccc2C1=O)C(=O)NC1CCCCC1C (stereo not drawn),7.49%
9,c1ccc(CSc2nccc(-c3ccco3)n2)cc1,-4.16%
10,CS(=O)(=O)NNP(=O)(NNS(C)(=O)=O)NC(=O)c1ccccc1,-44.4%
11,COc1nnc(OC)c2ccccc12,-2.81%
12,CCC(Sc1ncccn1)C(=O)Nc1cc(C)on1 (stereo not drawn),10.1%
13,Cc1cccc(NC(=O)C2CCN(S(=O)(=O)c3cccc4nonc34)CC2)c1,-0.218%
14,CC1(C)CC(=O)C=C(Nc2ccccc2N)C1,1.24%
15,CC(OC(=O)CNC(=O)c1ccco1)C(=O)Nc1ccc(Cl)cn1 (stereo not drawn),-11.4%
16,CSc1ccccc1NC(=O)COC(=O)c1c[nH]c(=O)[nH]c1=O,6.94%
17,CCOc1ccc(NS(=O)(=O)c2cc(C(=O)NCCCN3CCCC3=O)ccc2C)cc1,6.64%
18,Cc1ccc(-c2nc3ccccc3[nH]2)cc1NC(=O)c1sc2cc(Cl)ccc2c1Cl,11.6%
19,Cc1cc(C)c(C)c(S(=O)(=O)N2CCN(c3ccccn3)CC2)c1C,13.7%
20,CC(CC(=O)Nc1cccc(F)c1)S(=O)(=O)c1ccc2c(c1)NC(=O)CO2 (stereo not drawn),-14.8%
21,COc1ccc2c(c1)CCC(C)N2S(=O)(=O)c1ccc(C2CNC(=O)C2)cc1 (stereo not drawn),-26.2%
22,Cc1nn(-c2ccc(F)cc2)c(Cl)c1/C=N/NC(=O)c1cccc(S(=O)(=O)N2CCCC2)c1,3.29%
23,O=C(CCCn1c(=O)[nH]c2cc(Cl)ccc2c1=O)NC1CCCCCC1,-6.67%

row,Structure (SMILES),"hERG current change (%, negative = inhibition) at 10uM"
1,Cc1nnc(NC(=O)CSc2nc(C(C)C)nc3ccccc23)s1,8.47%
2,CC(C)n1c(NCCc2ccccc2)nc2c1c(=O)n(C)c(=O)n2C,8.06%
3,Cc1ccc(C2CC(c3cccc(NS(C)(=O)=O)c3)=NN2S(C)(=O)=O)cc1 (stereo not drawn),-69.3%
4,CCOc1ccc(NC(=O)CN(C)C(=O)COc2cccc(CC)c2)cc1OCC,-24.4%
5,CCC(Sc1nc(C)cc(C)n1)C(=O)Nc1ccc(Cl)cn1 (stereo not drawn),-16.6%
6,O=C(C[n+]1cccc2ccccc21)c1ccc([N+](=O)[O-])cc1.[Br-],-72.4%
7,COc1cc2c(cc1OC)CN(C1CCCN(Cc3cc(Cl)ccc3O)C1)CC2 (stereo not drawn),-49.6%
8,Cc1c(O)ccc(C(=O)COc2ccccc2F)c1O,-6.37%
9,CCOC(=O)CN1C(=O)SC(CC(=O)Nc2nccs2)C1=O (stereo not drawn),17%
10,CCOc1cc(/C=N\NC(=O)OC)ccc1OC(=O)c1ccco1,2.95%
11,COc1cccc(NC(=O)CN(C)C(=O)/C=C/c2cc(OC)ccc2OC)c1,-67.8%
12,CCOc1ccc(CNC(=O)c2ccc(Sc3ccc(Cl)cc3)c(NC(C)=O)c2)cc1OC,-15.5%
13,Cc1cccc(C)c1NC(=O)CN(C)C(=O)c1ccc(-c2cccc(C(F)(F)F)c2)o1,-12.5%
14,CC(=O)Oc1ccc(C(=O)O)c(OC(C)=O)c1,12.1%
15,CN1CCN(C(=S)c2cn(Cc3ccccc3)c3ccccc23)CC1,26.7%
16,COc1ccc(Cl)cc1NC(=O)CSc1nc(-c2ccccc2)cc(=O)[nH]1,1.35%
17,COc1ccc(C(=O)N[C@H](C(=O)Nc2ccc(S(=O)(=O)N3CCOCC3)cc2)C(C)C)cc1,-18%
18,O=C(NC1CCCCC1)N1CCN(C(=O)c2ccco2)CC1,-6.24%
19,CCOC(=O)c1ccc(Nc2ncccc2[N+](=O)[O-])cc1,9.89%
20,CCCCN(CC(=O)NC(C)(C)C)C(=O)C(=O)Nc1ccc2c(c1)OCCO2,-0.704%
21,CC1CN(C(=O)c2ccc(COc3ccc4ccccc4c3)o2)CC(C)O1 (stereo not drawn),-10.3%
22,CCCCCCCCCCCCS(=O)(=O)CCC(=O)O,11.1%
23,Cc1cccc2c1[nH]c1nc(N/N=C\c3ccco3)nnc12,15.5%

row,Structure (SMILES),"hERG current change (%, negative = inhibition) at 10uM"
1,Cc1ccc(-c2nnnn2C2C/C(=N\NC(N)=S)C3OCC2O3)cc1 (stereo not drawn),13.4%
2,CCOC(=O)C1=C(O)/C(=C\c2ccc(OC)c(OC)c2)N=C1C,10.5%
3,O=c1ccc2cc(S(=O)(=O)N3CCOCC3)ccc2o1,4.83%
4,COc1ccc(OCC(=O)N/N=C/c2cccc3cccnc23)cc1,12.8%
5,O=C(O)C(=O)O.O=C(c1ccc([N+](=O)[O-])cc1)N1CCN(Cc2ccccc2[N+](=O)[O-])CC1,-75%
6,COc1cc(NC(=O)CN2C(=O)CN(C)C2=O)c(C)cc1[N+](=O)[O-],17.6%
7,Cc1nn(-c2ccccc2)c2sc(C(=O)OCn3nnc4ccccc4c3=O)cc12,-1.28%
8,CC(OC(=O)c1cccnc1SCc1cc(=O)n2ccccc2n1)c1ccccn1 (stereo not drawn),-13.5%
9,COc1cccc(-n2c(C)nc3cc(C(=O)O)ccc32)c1,-7.63%
10,CCOC(=O)c1c(NC(C)=O)sc(C(=O)NC2CCCC2)c1C,23.7%
11,O=C(O)C1C(c2ccccc2)C(C(=O)Oc2ccc(O)cc2)C1c1ccccc1 (stereo not drawn),-2.67%
12,CN(C(=O)c1ccc(S(=O)(=O)N2CCCCC2)cc1)C1CCS(=O)(=O)C1 (stereo not drawn),-2.86%
13,CN(C(=O)c1cccs1)c1ccccc1C(=O)O,5.89%
14,C=CCOc1cccc(C2C(C(=O)c3ccc(C)o3)=C(O)C(=O)N2CCCn2ccnc2)c1 (stereo not drawn),9.13%
15,Cc1cc(C)n(-c2nc3c(c(=O)[nH]c(=O)n3C)n2CC(C)C)n1,4.52%
16,COc1ccc(N(CC(=O)NC2CC3CCC2C3)S(=O)(=O)c2ccc(C)cc2)cc1 (stereo not drawn),-22%
17,O=C(Cn1cnc2cc([N+](=O)[O-])ccc2c1=O)NC1CCS(=O)(=O)C1 (stereo not drawn),41.9%
18,COCCCn1c(SCC(=O)Nc2nnc(C)s2)nnc1-c1ccoc1C,4.33%
19,COc1ccc(N(CC(=O)NCCc2ccc(OC)c(OC)c2)S(=O)(=O)c2ccc(OC)c(OC)c2)cc1,5.38%
20,CCOc1ccc(-n2c(SCC(=O)NCc3ccco3)nc3c(c2=O)SCC3)cc1,-0.971%
21,COc1c(S(=O)(=O)N2CCCCC2)ccc2c(S(=O)(=O)N3CCCCC3)cccc12,-17.5%
